Results reported in the antibiotic and cytotoxicity screens of Wong et al. (2023).
This is one part of the list.

System: S. aureus RN4220
Experiment: growth inhibition call (relative growth <= 0.2)
Details: 50 µM

Growth inhibition call, inactive:
COc1ccc(S(=O)(=O)Nc2ccc3c(c2)C(=O)N([C@H](C)CO)C[C@H](C)[C@H](CN(C)C(=O)NC2CCCCC2)OCCCC[C@H](C)O3)cc1, C[C@H]1CN([C@@H](C)CO)C(=O)c2cccc(NC(=O)c3ccc(-c4nccs4)cc3)c2O[C@@H]1CN(C)Cc1ccc(C(=O)O)cc1, O=C(NC1CCC1)[C@@H]1[C@@H](CO)[C@@H]2Cn3c(cccc3=O)[C@@H]2N1CC1CCOCC1, CCCCC[C@H](O)/C=C/[C@@H]1[C@H]2C/C(=C/CCCC(=O)O)O[C@@H]2C[C@H]1O, C[C@@H]1CCCCO[C@@H](CN(C)C(=O)Nc2cccc3ccccc23)[C@@H](C)CN([C@@H](C)CO)C(=O)c2cc(NC(=O)Nc3ccc(C(F)(F)F)cc3)ccc2O1, Cc1noc(C)c1S(=O)(=O)Nc1ccc2c(c1)C(=O)N([C@H](C)CO)C[C@H](C)[C@@H](CN(C)S(=O)(=O)c1ccccc1)O2, C[C@@H](O)[C@@H](O)[C@H]1CNc2[nH]c(N)nc(=O)c2N1, COCCOC(=O)N1C(=O)[C@@]2(c3ccccc31)[C@H](c1ccc(O)cc1)N1[C@H](c3ccccc3)[C@H](c3ccccc3)OC(=O)[C@H]1[C@@H]2C(=O)N1CCc2cc(OC)c(OC)cc2C1, C[C@H](CO)N1C[C@H](C)[C@@H](CN(C)S(=O)(=O)c2ccc(Cl)cc2)Oc2c(cccc2N(C)C)C1=O, C[C@H](CO)N1C[C@H](C)[C@H](CN(C)C(=O)Nc2ccc(F)cc2)Oc2ccc(NC(=O)Nc3ccc(C(F)(F)F)cc3)cc2C1=O, C[C@H](CO)N1C[C@H](C)[C@H](CN(C)S(=O)(=O)c2cccs2)Oc2ccc(NS(C)(=O)=O)cc2C1=O, COc1cc2c(cc1OC)CN(C(=O)[C@H]1[C@@H]3C(=O)O[C@@H](c4ccccc4)[C@@H](c4ccccc4)N3[C@@H](c3ccccc3OCCO)[C@]13C(=O)Nc1ccc(C#CC4=CCCCC4)cc13)CC2, O=C(C[C@@H]1C[C@@H]2c3cc(NC(=O)Cc4ccncc4)ccc3O[C@@H]2[C@H](CO)O1)NCCc1ccccc1, Cc1noc(C)c1NC(=O)Nc1cccc2c1O[C@H](CN(C)Cc1ccc(C(F)(F)F)cc1)[C@H](C)CN([C@@H](C)CO)C2=O, COc1cccc(NC(=O)C[C@@H]2CC[C@H]3[C@H](COc4ccc(NC(=O)C5CCOCC5)cc4C(=O)N3C)O2)c1, C[C@H]1CN([C@@H](C)CO)C(=O)c2cc(NC(=O)Nc3ccc(C(F)(F)F)cc3)ccc2O[C@@H]1CN(C)S(=O)(=O)c1ccc(Cl)cc1, NCc1ccc(C(N)=O)cc1, CCC(=O)N[C@H]1C=C[C@@H](CC(=O)OC)O[C@@H]1CO, COc1oc(C(=O)NC2CCCCC2)c(-c2ccc(Cl)cc2)c1S(=O)(=O)c1ccc(Br)cc1, CO[C@H]1CN(C)C(=O)c2cc(NC(=O)Nc3ccccc3F)ccc2OC[C@H](C)N(Cc2ccccc2C(=O)O)C[C@@H]1C, CCOc1nc(N)cc(N)c1C#N, COc1ccc(S(=O)(=O)N[C@H]2C=C[C@H](CC(=O)N3CCC(Cc4ccccc4)CC3)O[C@@H]2CO)cc1, C[C@H](CO)N1C[C@H](C)[C@H](CN(C)Cc2ccc(-c3ccccc3)cc2)Oc2c(NS(=O)(=O)c3ccc(Cl)cc3)cccc2C1=O, COc1ccc(NC(=O)Nc2ccc3c(c2)CC(=O)N([C@@H](C)CO)C[C@@H](C)[C@H](CN(C)Cc2ccc(-c4ccccc4)cc2)O3)cc1, OC[C@@H](O)[C@@H](O)[C@@H](O)CO, Cc1ccc(S(=O)(=O)Nc2ccc3c(c2)C(=O)N([C@H](C)CO)C[C@@H](C)[C@H](CN(C)C(=O)C2CCCCC2)OCCCC[C@H](C)O3)cc1, C[C@H](CO)N1C[C@H](C)[C@H](CN(C)S(=O)(=O)c2ccccc2)OCCCC[C@H](C)Oc2ccc(NC(=O)Nc3ccc4c(c3)OCO4)cc2C1=O, COc1ccc2c3c([nH]c2c1)[C@@H](CO)N(C[C@]13CCN(CC1)C(=O)c1ccccc1F)C(=O)Nc1ccccc1F, C[C@@H]1CN([C@@H](C)CO)C(=O)c2cc(-c3ccc(C(=O)N(C)C)cc3)cnc2O[C@H]1CN(C)C(=O)CN(C)C, C[C@@H]1CCCCO[C@@H](CN(C)C(=O)C2CCCCC2)[C@@H](C)CN([C@@H](C)CO)C(=O)c2cc(NS(=O)(=O)c3ccc(Cl)cc3)ccc2O1, CC(C)c1nc(/N=C/N(C)C)nc(=O)n1C, C[C@@H]1CN([C@@H](C)CO)C(=O)c2cc(NC(=O)NC3CCCCC3)ccc2O[C@@H]1CN(C)Cc1ccc(-c2ccccc2)cc1, CC(C)NC(=O)N(C)C[C@H]1Oc2ccc(NS(=O)(=O)c3cn(C)cn3)cc2CC(=O)N([C@H](C)CO)C[C@H]1C, COc1cccc2c1C(=O)c1c(O)c3c(c(O)c1C2=O)CC(O)(C(=O)CO)CC3OC1CC(N)C(O)C(C)O1 (stereo not given), C[C@@H]1CN([C@H](C)CO)C(=O)c2cccc(NS(=O)(=O)c3ccc(Cl)cc3)c2O[C@H]1CN(C)C(=O)Nc1cccc2ccccc12, COc1ccc(CN2C[C@@H](C)[C@H](OC)CN(C)C(=O)c3ccc(NC(=O)c4nc5ccccc5s4)cc3OC[C@@H]2C)cc1, C[C@@H]1CN([C@H](C)CO)C(=O)CCCn2cc(nn2)CO[C@H]1CN(C)S(=O)(=O)c1ccc2c(c1)OCCCO2, Cc1ccc(S(=O)(=O)N(C)C[C@@H]2Oc3ccc(NS(=O)(=O)c4c(C)noc4C)cc3CC(=O)N([C@H](C)CO)C[C@@H]2C)cc1, C#CC1(O)CCC2C3CCC4=CC(=O)CCC4C3CCC21C (stereo not given), O=C(C[C@H]1CC[C@@H]2[C@H](COC[C@@H](O)CN2Cc2cc(F)ccc2F)O1)N[C@H]1CCN(Cc2ccccc2)C1
